Experimental data: the supplement of paper PMC9446081
Screen size: about 39,000 compounds; about 220 (0.56%) showed activity. The list shows a part of the results.
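Also: static incubation at 37 °C against the wild-type strain, values averaged over two biological replicates.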

The molecules below were run on Escherichia coli K-12 BW25113 (assay: relative growth (OD600 normalised to plate interquartile mean) (fraction); higher = less growth inhibition, active = 0.2 or less). Conditions: 50 µM; LB; incubation time: overnight (16-24 h).
`C[C@@H]1CN([C@@H](C)CO)C(=O)c2cc(C#Cc3cccc(F)c3)cnc2O[C@H]1CN(C)CC1CCOCC1` was tested, and the relative growth was inactive: 1.01.
In the case of `CC(C)CC#Cc1cnc2c(c1)C(=O)N([C@H](C)CO)C[C@H](C)[C@H](CN(C)S(=O)(=O)c1cn(C)cn1)O2`, the relative growth is reported as inactive: 0.982.
With `NCC[C@H]1CC[C@@H](NC(=O)c2ccccc2F)[C@@H](CO)O1` the relative growth was inactive: 0.99.
With `C[C@H](O)C#Cc1ccc2c(c1)O[C@@H](CN(C)C(=O)Cc1ccccn1)[C@H](C)CN([C@H](C)CO)S2(=O)=O` the relative growth was inactive: 0.99.
`C[C@H](CO)N1C[C@H](C)[C@H](CN(C)S(=O)(=O)c2ccc(Cl)cc2)OCCCC[C@H](C)Oc2ccc(NC(=O)Nc3ccc(C(F)(F)F)cc3)cc2C1=O` was tested, and the relative growth was inactive: 1.
For `COc1ccc(S(=O)(=O)Nc2ccc3c(c2)C(=O)N([C@@H](C)CO)C[C@H](C)[C@H](CN(C)C(=O)c2ccccc2)OCCCC[C@H](C)O3)cc1`, the relative growth was inactive: 1.
With `CC(=O)Oc1cccc(C)c1` [meta-CRESYL ACETATE] the relative growth was inactive: 0.958.
For `CN(C)S(=O)(=O)Nc1ccc(C(=O)O)cc1`, the relative growth was inactive: 0.993.
With `C[C@@H]1CCCCO[C@@H](CN(C)CC2CC2)[C@H](C)CN([C@@H](C)CO)C(=O)c2cc(NC(=O)CCC(F)(F)F)ccc2O1` the relative growth was inactive: 0.995.
In the case of `COc1ccc(NC(=O)Nc2ccc3c(c2)C(=O)N([C@H](C)CO)C[C@H](C)[C@@H](CN(C)S(=O)(=O)c2ccc(OC)cc2)OCCCC[C@H](C)O3)cc1`, the relative growth is reported as inactive: 1.03.
In the case of `C[C@@H]1CN([C@H](C)CO)C(=O)Cc2cc(NC(=O)CCN3CCOCC3)ccc2O[C@H]1CN(C)S(=O)(=O)c1cccs1`, the relative growth is reported as inactive: 1.01.
In the case of `O=C(O)C[C@@H]1CC[C@H]2[C@@H](COC[C@H](O)CN2S(=O)(=O)c2ccc(F)cc2)O1`, the relative growth is reported as inactive: 0.975.
In the case of `C[C@@H]1CCCCO[C@@H](CN(C)S(=O)(=O)c2cn(C)cn2)[C@@H](C)CN([C@H](C)CO)C(=O)c2cc(NS(=O)(=O)c3cccs3)ccc2O1`, the relative growth is reported as inactive: 0.947.
For `C[C@@H]1CN([C@@H](C)CO)C(=O)c2cccc(NC(=O)c3ccncc3)c2O[C@@H]1CN(C)Cc1ccc(-c2ccccc2)cc1`, the relative growth was inactive: 1.01.
For `C[C@@H]1CCCCO[C@@H](CN(C)S(=O)(=O)c2ccc(F)cc2)[C@H](C)CN([C@@H](C)CO)C(=O)c2cc(NS(C)(=O)=O)ccc2O1`, the relative growth was inactive: 0.988.
`C[C@@H]1CN([C@H](C)CO)C(=O)Cc2cc(NC(=O)Cn3cnnn3)ccc2O[C@H]1CN(C)Cc1ccc(Oc2ccccc2)cc1` was tested, and the relative growth was inactive: 0.937.
For `C[C@@H]1CN([C@H](C)CO)S(=O)(=O)c2ccc(C#CCC3CCCC3)cc2O[C@@H]1CN(C)C(=O)CN(C)C`, the relative growth was inactive: 1.01.
In the case of `CC(C)NC(=O)Nc1ccc2c(c1)C(=O)N([C@@H](C)CO)C[C@H](C)[C@@H](CN(C)Cc1ccc(Cl)c(Cl)c1)OCCCC[C@H](C)O2`, the relative growth is reported as inactive: 1.02.
For `CO[C@H]1CN(C)C(=O)c2cc(NC(=O)Nc3ccccc3)ccc2OC[C@H](C)N(C(=O)CN(C)C)C[C@@H]1C`, the relative growth was inactive: 0.977.
With `O=C(O)C[C@](O)(Cc1ccc(O)cc1)C(=O)O` the relative growth was inactive: 1.01.
For `C[C@@H]1CCCCO[C@H](CN(C)Cc2ccccc2)[C@@H](C)CN([C@H](C)CO)C(=O)c2cc(NC(=O)NC3CCCCC3)ccc2O1`, the relative growth was inactive: 0.976.
For `COC(=O)[C@H]1CCCC[C@@H]1CN`, the relative growth was inactive: 0.998.
With `COc1ccc(S(=O)(=O)Nc2ccc3c(c2)C(=O)N([C@@H](C)CO)C[C@@H](C)[C@@H](CN(C)Cc2ccc(C(F)(F)F)cc2)OCCCC[C@@H](C)O3)cc1` the relative growth was inactive: 0.898.
`C[C@@H]1CN([C@@H](C)CO)C(=O)c2cc(/C=C/c3ccccc3)cnc2O[C@H]1CN(C)C(=O)C1CCOCC1` was tested, and the relative growth was inactive: 1.01.
For `C[C@H]1CN([C@@H](C)CO)C(=O)c2cc(NC(=O)Nc3ccc(C(F)(F)F)cc3)ccc2O[C@H]1CN(C)Cc1ccc2c(c1)OCO2`, the relative growth was inactive: 0.989.
With `COc1ccc(CCN2C(=O)[C@@]3(c4ccc([N+](=O)[O-])cc4)CC(=O)N(C4CCCCC4)[C@@H]3c3ccc(CO)cc32)cc1` the relative growth was inactive: 1.01.
With `Nc1ccn([C@@H]2C[C@@H](O)[C@H](CO)O2)c(=O)n1` the relative growth was inactive: 1.
For `Fc1ccc(Nc2ncnc3sc(-c4ccccc4)cc23)cc1`, the relative growth was inactive: 1.
For `C[C@H]1CN([C@@H](C)CO)C(=O)c2cccc(NS(=O)(=O)c3ccccc3)c2O[C@@H]1CN(C)Cc1ccc(Oc2ccccc2)cc1`, the relative growth was inactive: 0.999.
`COc1ccc(NC(=O)Nc2ccc3c(c2)[C@H]2C[C@@H](CC(=O)N4CCN(C)CC4)O[C@@H](CO)[C@H]2O3)cc1` was tested, and the relative growth was inactive: 0.985.
With `C[C@H](CO)N1C[C@H](C)[C@@H](CN(C)C(=O)CCCN(C)C)OCCCC[C@H](C)Oc2ccc(NS(C)(=O)=O)cc2C1=O` the relative growth was inactive: 0.849.
`C[C@@H]1CN([C@H](C)CO)C(=O)c2cc(/C=C/c3ccccc3)cnc2O[C@@H]1CN(C)S(=O)(=O)c1cn(C)cn1` was tested, and the relative growth was inactive: 1.01.
`CC(C)NC(=O)Nc1ccc2c(c1)C(=O)N([C@@H](C)CO)C[C@@H](C)[C@H](CN(C)S(=O)(=O)c1ccc(Cl)cc1)O2` was tested, and the relative growth was inactive: 0.99.
For `Cc1cc2nc3c(=O)[nH]c(=O)nc-3n(C[C@H](O)[C@H](O)[C@H](O)COP(=O)(O)O)c2cc1C`, the relative growth was inactive: 0.952.
`C[C@H]1CCCC[C@]12NC(=O)NC2=O` was tested, and the relative growth was inactive: 0.989.
In the case of `Cc1ccc2c(=O)c3ccccc3n(CCCN)c2c1C`, the relative growth is reported as inactive: 0.885.
`Cc1cc(C(=O)Nc2cccc3c2O[C@@H](CN(C)C(=O)Nc2ccc4c(c2)OCO4)[C@H](C)CN([C@@H](C)CO)C3=O)n(C)n1` was tested, and the relative growth was inactive: 0.993.
For `O=C(CN1CCOCC1)NCC[C@H]1CC[C@H](NC(=O)c2ccc3c(c2)OCO3)[C@@H](CO)O1`, the relative growth was inactive: 1.01.
In the case of `C[C@@H]1CN([C@H](C)CO)C(=O)c2cc(NC(=O)Nc3cccc4ccccc34)ccc2O[C@@H](C)CCCCO[C@H]1CN(C)Cc1ccc(Cl)c(Cl)c1`, the relative growth is reported as inactive: 1.01.
